Assay results published in the supplement of paper PMC8728848.
The list shows a part of the results.

Tests used:
Experiment in all cases: glycan array binding signal (z-score within array); higher = stronger binding
Conditions in all cases: glycan notation: IUPAC condensed, linker removed
[1] = biological target: Gal(b1-3)GlcNAc(b1-2)Man(a1-3)[Gal(b1-3)GlcNAc(b1-2)Man(a1-6)]Man(b1-4)GlcNAc(b1-4)[Fuc(a1-6)]GlcNAc
Method in brief: (§1)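 Negative Z-scores can be read as non-binding. The Z-score is calculated within each array and then averaged across arrays of one protein sequence at different concentrations or buffers and across linkers. Arrays, 3228 in all, were curated from the Consortium for Functional Glycomics database and kept only where the protein sequence was available.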

[2] = biological target: Gal(b1-3)GlcNAc(b1-2)Man(a1-3)[GlcNAc(b1-4)][Gal(b1-3)GlcNAc(b1-2)Man(a1-6)]Man(b1-4)GlcNAc(b1-4)GlcNAc
Method in brief: as §1

[3] = biological target: Gal(b1-3)GlcNAc(b1-2)[Gal(b1-3)GlcNAc(b1-6)]Man(a1-6)[Gal(b1-3)GlcNAc(b1-2)Man(a1-3)]Man(b1-4)GlcNAc(b1-4)GlcNAc
Method in brief: as §1

[4] = biological target: Gal(b1-3)GlcNAc(b1-3)Gal(b1-3)GlcNAc
Method in brief: as §1

[5] = biological target: Gal(b1-3)GlcNAc(b1-3)Gal(b1-4)Glc
Method in brief: as §1

[6] = biological target: Gal(b1-3)GlcNAc(b1-3)Gal(b1-4)GlcNAc
Method in brief: as §1

[7] = biological target: Gal(b1-3)GlcNAc(b1-3)Gal(b1-4)GlcNAc(b1-2)Man(a1-3)[Gal(b1-3)GlcNAc(b1-3)Gal(b1-4)GlcNAc(b1-2)Man(a1-6)]Man(b1-4)GlcNAc(b1-4)GlcNAc
Method in brief: as §1

[8] = biological target: Gal(b1-3)GlcNAc(b1-3)Gal(b1-4)GlcNAc(b1-2)[Gal(b1-3)GlcNAc(b1-3)Gal(b1-4)GlcNAc(b1-6)]Man(a1-6)[Gal(b1-3)GlcNAc(b1-3)Gal(b1-4)GlcNAc(b1-2)Man(a1-3)]Man(b1-4)GlcNAc(b1-4)[Fuc(a1-6)]GlcNAc
Method in brief: as §1

[9] = biological target: Gal(b1-3)GlcNAc(b1-3)Gal(b1-4)GlcNAc(b1-3)Gal(b1-4)GlcNAc(b1-2)[Gal(b1-3)GlcNAc(b1-3)Gal(b1-4)GlcNAc(b1-3)Gal(b1-4)GlcNAc(b1-6)]Man(a1-6)[Gal(b1-3)GlcNAc(b1-3)Gal(b1-4)GlcNAc(b1-3)Gal(b1-4)GlcNAc(b1-2)Man(a1-3)]Man(b1-4)GlcNAc(b1-4)[Fuc(a1-6)]GlcNAc
Method in brief: as §1

[10] = biological target: Gal(b1-3)GlcNAc(b1-3)Gal(b1-4)GlcNAc(b1-6)[Gal(b1-3)GlcNAc(b1-3)]Gal(b1-4)Glc
Method in brief: as §1

[11] = biological target: Gal(b1-3)GlcNAc(b1-3)Gal(b1-4)[Fuc(a1-3)]GlcNAc
Method in brief: as §1

[12] = biological target: Gal(b1-3)GlcNAc(b1-3)Gal(b1-4)[Fuc(a1-3)]GlcNAc(b1-6)[Gal(b1-3)GlcNAc(b1-3)]Gal(b1-4)Glc
Method in brief: as §1

[13] = biological target: Gal(b1-3)GlcNAc(b1-3)GalNAc
Method in brief: as §1

[14] = biological target: Gal(b1-3)GlcNAc(b1-6)Gal(b1-4)GlcNAc
Method in brief: as §1

[15] = biological target: Gal(b1-3)GlcNAc(b1-6)GalNAc
Method in brief: as §1

[16] = biological target: Gal(b1-3)GlcNAc(b1-6)[Gal(b1-3)]GalNAc
Method in brief: as §1

[17] = biological target: Gal(b1-3)GlcNAc6S
Method in brief: as §1

[18] = biological target: Gal(b1-3)[Fuc(a1-4)]GlcNAc
Method in brief: as §1

[19] = biological target: Gal(b1-3)[Fuc(a1-4)]GlcNAc(b1-2)Man
Method in brief: as §1

[20] = biological target: Gal(b1-3)[Fuc(a1-4)]GlcNAc(b1-2)Man(a1-3)[Gal(b1-3)[Fuc(a1-4)]GlcNAc(b1-2)Man(a1-6)]Man(b1-4)GlcNAc(b1-4)[Fuc(a1-6)]GlcNAc
Method in brief: as §1

[21] = biological target: Gal(b1-3)[Fuc(a1-4)]GlcNAc(b1-3)Gal(b1-3)[Fuc(a1-4)]GlcNAc
Method in brief: as §1

[22] = biological target: Gal(b1-3)[Fuc(a1-4)]GlcNAc(b1-3)Gal(b1-4)[Fuc(a1-3)]GlcNAc
Method in brief: as §1

[23] = biological target: Gal(b1-3)[Fuc(a1-4)]GlcNAc(b1-6)GalNAc
Method in brief: as §1

[24] = biological target: Gal(b1-3)[GlcNAc(b1-6)]GalNAc
Method in brief: as §1

[25] = biological target: Gal(b1-3)[Neu5Ac(a2-6)]GalNAc
Method in brief: as §1

[26] = biological target: Gal(b1-3)[Neu5Ac(a2-6)]GlcNAc(b1-4)Gal(b1-4)Glc
Method in brief: as §1

[27] = biological target: Gal(b1-3)[Neu5Ac(b2-6)]GalNAc
Method in brief: as §1

[28] = biological target: Gal(b1-4)Gal
Method in brief: as §1

[29] = biological target: Gal(b1-4)GalNAc(a1-3)[Fuc(a1-2)]Gal(b1-4)GlcNAc
Method in brief: as §1

[30] = biological target: Gal(b1-4)GalNAc(b1-3)[Fuc(a1-2)]Gal(b1-4)GlcNAc
Method in brief: as §1

[31] = biological target: Gal(b1-4)Glc
Method in brief: as §1

[32] = biological target: Gal(b1-4)Glc6S
Method in brief: as §1

[33] = biological target: Gal(b1-4)GlcNAc
Method in brief: as §1

[34] = biological target: Gal(b1-4)GlcNAc(a1-6)Gal(b1-4)GlcNAc
Method in brief: as §1

[35] = biological target: Gal(b1-4)GlcNAc(b1-2)Man
Method in brief: as §1

[36] = biological target: Gal(b1-4)GlcNAc(b1-2)Man(a1-3)Man(b1-4)GlcNAc(b1-4)GlcNAc
Method in brief: as §1

[37] = biological target: Gal(b1-4)GlcNAc(b1-2)Man(a1-3)[Gal(b1-4)GlcNAc(b1-2)Man(a1-6)]Man(b1-4)GlcNAc(b1-4)GlcNAc
Method in brief: as §1

[38] = biological target: Gal(b1-4)GlcNAc(b1-2)Man(a1-3)[Gal(b1-4)GlcNAc(b1-2)Man(a1-6)]Man(b1-4)GlcNAc(b1-4)[Fuc(a1-6)]GlcNAc
Method in brief: as §1

[39] = biological target: Gal(b1-4)GlcNAc(b1-2)Man(a1-3)[Gal(b1-4)GlcNAc(b1-2)Man(a1-6)][Gal(b1-4)GlcNAc(b1-4)]Man(b1-4)GlcNAc(b1-4)[Fuc(a1-6)]GlcNAc
Method in brief: as §1

[40] = biological target: Gal(b1-4)GlcNAc(b1-2)Man(a1-3)[Gal(b1-4)GlcNAc(b1-2)Man(a1-6)][GlcNAc(b1-4)]Man(b1-4)GlcNAc(b1-4)[Fuc(a1-6)]GlcNAc
Method in brief: as §1

[41] = biological target: Gal(b1-4)GlcNAc(b1-2)Man(a1-3)[GlcNAc(b1-2)Man(a1-6)]Man(b1-4)GlcNAc(b1-4)GlcNAc
Method in brief: as §1

[42] = biological target: Gal(b1-4)GlcNAc(b1-2)Man(a1-3)[GlcNAc(b1-4)][Gal(b1-4)GlcNAc(b1-2)Man(a1-6)]Man(b1-4)GlcNAc(b1-4)GlcNAc
Method in brief: as §1

[43] = biological target: Gal(b1-4)GlcNAc(b1-2)Man(a1-3)[Man(a1-6)]Man(b1-4)GlcNAc(b1-4)GlcNAc
Method in brief: as §1

[44] = biological target: Gal(b1-4)GlcNAc(b1-2)Man(a1-6)Man(b1-4)GlcNAc(b1-4)GlcNAc
Method in brief: as §1

[45] = biological target: Gal(b1-4)GlcNAc(b1-2)Man(a1-6)[GlcNAc(b1-2)Man(a1-3)]Man(b1-4)GlcNAc(b1-4)GlcNAc
Method in brief: as §1

B1: MPA (Maclura pomifera), P18674 (protein)
chain: GVTFDDGAYTGIREINFEYNSETAIGGLRVTYDLNGMPFVAEDHKSFITGFKPVKISLEFPSEYIVEVSGYVGKVEGYTVIRSLTFKTNKQTYGPYGVTNGTPFSLPIENGLIVGFKGSIGYWLDYFSIYLSL
- glycan array binding signal (z-score) [1]: -0.074
- glycan array binding signal (z-score) [2]: -0.024
- glycan array binding signal (z-score) [3]: -0.234
- glycan array binding signal (z-score) [4]: -0.159
- glycan array binding signal (z-score) [5]: -0.157
- glycan array binding signal (z-score) [6]: -0.219
- glycan array binding signal (z-score) [7]: -0.169
- glycan array binding signal (z-score) [8]: 0.102
- glycan array binding signal (z-score) [9]: 0.39
- glycan array binding signal (z-score) [10]: -0.039
- glycan array binding signal (z-score) [11]: -0.14
- glycan array binding signal (z-score) [12]: -0.148
- glycan array binding signal (z-score) [13]: -0.286
- glycan array binding signal (z-score) [14]: -0.145
- glycan array binding signal (z-score) [15]: -0.363
- glycan array binding signal (z-score) [16]: -0.291
- glycan array binding signal (z-score) [17]: -0.294
- glycan array binding signal (z-score) [18]: -0.222
- glycan array binding signal (z-score) [19]: -0.31
- glycan array binding signal (z-score) [20]: 0.036
- glycan array binding signal (z-score) [21]: -0.185
- glycan array binding signal (z-score) [22]: -0.279
- glycan array binding signal (z-score) [23]: -0.324
- glycan array binding signal (z-score) [24]: -0.112
- glycan array binding signal (z-score) [25]: -0.256
- glycan array binding signal (z-score) [26]: -0.25
- glycan array binding signal (z-score) [27]: -0.294
- glycan array binding signal (z-score) [28]: -0.349
- glycan array binding signal (z-score) [29]: -0.223
- glycan array binding signal (z-score) [30]: -0.26
- glycan array binding signal (z-score) [31]: -0.197
- glycan array binding signal (z-score) [32]: -0.154
- glycan array binding signal (z-score) [33]: -0.18
- glycan array binding signal (z-score) [34]: -0.207
- glycan array binding signal (z-score) [35]: -0.162
- glycan array binding signal (z-score) [36]: -0.232
- glycan array binding signal (z-score) [37]: -0.124
- glycan array binding signal (z-score) [38]: -0.185
- glycan array binding signal (z-score) [39]: -0.166
- glycan array binding signal (z-score) [40]: -0.26
- glycan array binding signal (z-score) [41]: -0.111
- glycan array binding signal (z-score) [42]: -0.297
- glycan array binding signal (z-score) [43]: -0.21
- glycan array binding signal (z-score) [44]: -0.224
- glycan array binding signal (z-score) [45]: -0.153
